Results published in the supplement of paper PMC12217912.
The other results are listed elsewhere or left out. The full chains were built here from the parent and the listed change. Inactive controls read about 0.05.

B1: TEV protease; numbered along this chain (parent)
chain: MGESLFKGPRDYNPISSSICHLTNESDGHTTSLYGIGFGPFIITNKHLFRRNNGTLVVQSLHGVFKVKDTTTLQQHLVDGRDMIIIRMPKDFPPFPQKLKFREPQREERICLVTTNFQTKSMSSMVSDTSCTFPSGDGIFWKHWIQTKDGQCGSPLVSTRDGFIVGIHSASNFTNTNNYFTSVPKNFMELLTNQEAQQWVSGWRLNADSVLWGGHKVFMVKPEEPFQPVKEATQL

Variants of: B1
Test: raw area under fraction-flipped curve 0-4 h after induction (AUC4h, not background-subtracted), DNA-recorder readout of cleavage of the substrate (dimensionless); higher = more cleavage of the substrate by the protease variant
Conditions: temperature: 34 °C; time window: 0-4 h after rhamnose induction
Experimental: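 In vivo DNA recorder in E. coli TOP10(DE3) ΔrhaA at 34 °C. Each TEVp single-site mutant (parent TEVp 0) is paired with a single-site variant of the 7-mer TEVs (canonical ENLYFQ|S). The substrate sits between flexible linkers in a Bxb1-sfGFP-TEVs-SsrA fusion, so cleavage stabilises Bxb1 and speeds flipping of a recombination array, read by NGS. The value is the raw area under the fraction-flipped curve over 0-4 h after rhamnose induction (AUC4h), with ≥20 reads per time point. It is not background-subtracted; inactive controls average about 0.047.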
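Note: Bxb1 expression induced with 0.2% (w/v) L-rhamnose at OD600 near 0.5, cultures sampled hourly, flipped fraction per protease–substrate barcode pair counted by paired-end Illumina sequencing.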

Variant | area with substrate ENAYFQS | area with substrate ENCYFQS | area with substrate ENDYFQS | area with substrate ENEYFQS | area with substrate ENGYFQS | area with substrate ENKYFQS | area with substrate ENNYFQS | area with substrate ENPYFQS | area with substrate ENQYFQS | area with substrate ENRYFQS | area with substrate ENSYFQS | area with substrate ENVYFQS | area with substrate ENYYFQS | area with substrate ENHYFQS | area with substrate ENMYFQS | area with substrate ENTYFQS | area with substrate ENFYFQS | area with substrate ENIYFQS | area with substrate ENWYFQS
MEESLFKGPRDYNPISSSICHLTNESDGHTTSLYGIGFGPFIITNKHLFRRNNGTLVVQSLHGVFKVKDTTTLQQHLVDGRDMIIIRMPKDFPPFPQKLKFREPQREERICLVTTNFQTKSMSSMVSDTSCTFPSGDGIFWKHWIQTKDGQCGSPLVSTRDGFIVGIHSASNFTNTNNYFTSVPKNFMELLTNQEAQQWVSGWRLNADSVLWGGHKVFMVKPEEPFQPVKEATQL [G2E] | 0.063 | 0.0691 | 0.0608 | 0.0095 | 0.0514 | 0.0623 | 0.0492 | 0.0495 | 0.0488 | 0.0541 | 0.0613 | 0.0881 | 0.0602 | – | – | – | – | – | –
MGSSLFKGPRDYNPISSSICHLTNESDGHTTSLYGIGFGPFIITNKHLFRRNNGTLVVQSLHGVFKVKDTTTLQQHLVDGRDMIIIRMPKDFPPFPQKLKFREPQREERICLVTTNFQTKSMSSMVSDTSCTFPSGDGIFWKHWIQTKDGQCGSPLVSTRDGFIVGIHSASNFTNTNNYFTSVPKNFMELLTNQEAQQWVSGWRLNADSVLWGGHKVFMVKPEEPFQPVKEATQL [E3S] | 0.0522 | 0.0672 | 0.0412 | 0.0738 | 0.046 | 0.039 | 0.0716 | – | 0.0494 | 0.0545 | 0.0602 | 0.0861 | 0.0674 | 0.0574 | 0.0888 | 0.0646 | – | – | –
MGESLFKRPRDYNPISSSICHLTNESDGHTTSLYGIGFGPFIITNKHLFRRNNGTLVVQSLHGVFKVKDTTTLQQHLVDGRDMIIIRMPKDFPPFPQKLKFREPQREERICLVTTNFQTKSMSSMVSDTSCTFPSGDGIFWKHWIQTKDGQCGSPLVSTRDGFIVGIHSASNFTNTNNYFTSVPKNFMELLTNQEAQQWVSGWRLNADSVLWGGHKVFMVKPEEPFQPVKEATQL [G8R] | 0.0634 | – | – | 0.0579 | – | – | 0.0597 | – | – | – | – | – | – | – | – | 0.0437 | 0.0848 | – | –
MGESLFKGGRDYNPISSSICHLTNESDGHTTSLYGIGFGPFIITNKHLFRRNNGTLVVQSLHGVFKVKDTTTLQQHLVDGRDMIIIRMPKDFPPFPQKLKFREPQREERICLVTTNFQTKSMSSMVSDTSCTFPSGDGIFWKHWIQTKDGQCGSPLVSTRDGFIVGIHSASNFTNTNNYFTSVPKNFMELLTNQEAQQWVSGWRLNADSVLWGGHKVFMVKPEEPFQPVKEATQL [P9G] | 0.0383 | 0.0581 | 0.0598 | 0.0462 | 0.0506 | 0.064 | 0.0661 | 0.0349 | 0.0466 | – | 0.0627 | 0.0816 | – | – | 0.0737 | – | 0.0526 | 0.112 | 0.0534
MGESLFKGWRDYNPISSSICHLTNESDGHTTSLYGIGFGPFIITNKHLFRRNNGTLVVQSLHGVFKVKDTTTLQQHLVDGRDMIIIRMPKDFPPFPQKLKFREPQREERICLVTTNFQTKSMSSMVSDTSCTFPSGDGIFWKHWIQTKDGQCGSPLVSTRDGFIVGIHSASNFTNTNNYFTSVPKNFMELLTNQEAQQWVSGWRLNADSVLWGGHKVFMVKPEEPFQPVKEATQL [P9W] | 0.0744 | – | 0.0638 | – | – | 0.0619 | 0.0461 | 0.0499 | – | – | 0.0614 | 0.0742 | – | 0.0664 | 0.0623 | 0.0652 | 0.0631 | 0.197 | –
MGESLFKGPNDYNPISSSICHLTNESDGHTTSLYGIGFGPFIITNKHLFRRNNGTLVVQSLHGVFKVKDTTTLQQHLVDGRDMIIIRMPKDFPPFPQKLKFREPQREERICLVTTNFQTKSMSSMVSDTSCTFPSGDGIFWKHWIQTKDGQCGSPLVSTRDGFIVGIHSASNFTNTNNYFTSVPKNFMELLTNQEAQQWVSGWRLNADSVLWGGHKVFMVKPEEPFQPVKEATQL [R10N] | 0.0849 | – | 0.0564 | 0.063 | – | 0.0795 | 0.0736 | 0.0689 | 0.0667 | 0.0473 | 0.0668 | 0.0692 | 0.0608 | 0.0614 | – | 0.0682 | 0.0724 | 0.0991 | –
MGESLFKGPRMYNPISSSICHLTNESDGHTTSLYGIGFGPFIITNKHLFRRNNGTLVVQSLHGVFKVKDTTTLQQHLVDGRDMIIIRMPKDFPPFPQKLKFREPQREERICLVTTNFQTKSMSSMVSDTSCTFPSGDGIFWKHWIQTKDGQCGSPLVSTRDGFIVGIHSASNFTNTNNYFTSVPKNFMELLTNQEAQQWVSGWRLNADSVLWGGHKVFMVKPEEPFQPVKEATQL [D11M] | 0.0623 | 0.0636 | 0.07 | 0.0669 | – | 0.0643 | 0.0639 | 0.0491 | 0.0672 | 0.0508 | 0.0651 | 0.0578 | 0.0661 | 0.0318 | 0.0715 | 0.0667 | 0.0599 | 0.0671 | –
MGESLFKGPRDDNPISSSICHLTNESDGHTTSLYGIGFGPFIITNKHLFRRNNGTLVVQSLHGVFKVKDTTTLQQHLVDGRDMIIIRMPKDFPPFPQKLKFREPQREERICLVTTNFQTKSMSSMVSDTSCTFPSGDGIFWKHWIQTKDGQCGSPLVSTRDGFIVGIHSASNFTNTNNYFTSVPKNFMELLTNQEAQQWVSGWRLNADSVLWGGHKVFMVKPEEPFQPVKEATQL [Y12D] | 0.0569 | 0.0551 | 0.0592 | 0.0444 | 0.0739 | 0.0758 | 0.0662 | 0.051 | 0.0494 | – | 0.0634 | 0.0685 | – | 0.0545 | – | 0.0524 | 0.0418 | 0.0879 | 0.0074
MGESLFKGPRDENPISSSICHLTNESDGHTTSLYGIGFGPFIITNKHLFRRNNGTLVVQSLHGVFKVKDTTTLQQHLVDGRDMIIIRMPKDFPPFPQKLKFREPQREERICLVTTNFQTKSMSSMVSDTSCTFPSGDGIFWKHWIQTKDGQCGSPLVSTRDGFIVGIHSASNFTNTNNYFTSVPKNFMELLTNQEAQQWVSGWRLNADSVLWGGHKVFMVKPEEPFQPVKEATQL [Y12E] | 0.0658 | 0.0735 | 0.0422 | 0.0659 | 0.0666 | 0.0452 | 0.0573 | 0.0649 | 0.0609 | 0.0599 | 0.0636 | 0.0544 | – | 0.0702 | – | – | 0.0455 | – | –
